This note sets out measurements from the BET-seq Pho4 binding data (Le et al. 2018).

The other results are listed elsewhere or left out. Values were computed here from the reads of four pooled replicates and scatter widely.

For the experiment, the target named is T1, Pho4 (S. cerevisiae) (UniProt P07270).
T1 sequence: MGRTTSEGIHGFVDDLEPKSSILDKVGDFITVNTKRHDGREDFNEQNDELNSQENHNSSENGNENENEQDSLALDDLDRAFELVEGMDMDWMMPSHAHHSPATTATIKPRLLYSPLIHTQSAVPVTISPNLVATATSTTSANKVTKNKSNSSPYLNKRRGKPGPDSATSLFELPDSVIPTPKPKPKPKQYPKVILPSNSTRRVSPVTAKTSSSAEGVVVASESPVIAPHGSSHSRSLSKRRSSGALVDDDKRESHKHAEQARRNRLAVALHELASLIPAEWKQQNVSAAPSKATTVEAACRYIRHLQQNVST
As to the kind of experiment: relative binding free energy (BET-seq); higher = weaker binding. As to conditions: reference: library average.
In the case of TTCTTCACGTGTTTTT, the “relative binding free energy” value stood at 0.37 kcal/mol.

As for GATAGCACGTGTGCGA, the “relative binding free energy” value is 0.18 kcal/mol.

For TAGTACACGTGAGGTC, the “relative binding free energy” value was 0.33 kcal/mol.

Turning to TCGTGCACGTGGGTAA, the “relative binding free energy” value is -0.17 kcal/mol.

Turning to ATTAACACGTGGAATT, the “relative binding free energy” value turned out to be 0.05 kcal/mol.

GTGTACACGTGTAGCG: the “relative binding free energy” value amounted to 0.16 kcal/mol.

With CTTTACACGTGCGCGT, the “relative binding free energy” value stood at 0.15 kcal/mol.

Take CATCTCACGTGGGTGT: the “relative binding free energy” value is 0.16 kcal/mol.

For TGAGTCACGTGATTGG, the “relative binding free energy” value was 0.2 kcal/mol.

GTGGACACGTGTTCGG: the “relative binding free energy” value stood at 0.03 kcal/mol.

For the sequence GGTGGCACGTGGATTG, the “relative binding free energy” value was -0.04 kcal/mol.

Take TATCTCACGTGAGGGG: the “relative binding free energy” value came to 0.35 kcal/mol.

AGGAGCACGTGGTGTT: the “relative binding free energy” value is -0.23 kcal/mol.

As to ATTGGCACGTGACTTT, the “relative binding free energy” value was -0.02 kcal/mol.

In the case of TATTTCACGTGGATTA, the “relative binding free energy” value amounted to 0.2 kcal/mol.

With GTGCTCACGTGTCAGG, the “relative binding free energy” value stood at 0.31 kcal/mol.

In the case of CACGGCACGTGCGGGG, the “relative binding free energy” value is -0.2 kcal/mol.

TGTTGCACGTGCCAGT: the “relative binding free energy” value is -0.15 kcal/mol.

GTACACACGTGGTTTT: the “relative binding free energy” value amounted to 0 kcal/mol.

In the case of TTATACACGTGTTTAT, the “relative binding free energy” value is 0.15 kcal/mol.

Take GTGCACACGTGTCGGG: the “relative binding free energy” value is -0.02 kcal/mol.

Take GGTTCCACGTGTGTCT: the “relative binding free energy” value is 0.14 kcal/mol.

In the case of GTTGGCACGTGACCTG, the “relative binding free energy” value was -0.02 kcal/mol.

Turning to TGGCACACGTGTGATG, the “relative binding free energy” value worked out at 0.09 kcal/mol.

As for ATGAGCACGTGGATTA, the “relative binding free energy” value was -0.02 kcal/mol.

For CGAGGCACGTGGGTCA, the “relative binding free energy” value is -0.26 kcal/mol.

As for GGGTTCACGTGGACGG, the “relative binding free energy” value is 0.4 kcal/mol.

For GGGCGCACGTGTGTCT, the “relative binding free energy” value was -0.01 kcal/mol.

For the sequence ATAGACACGTGATTGT, the “relative binding free energy” value came to 0.08 kcal/mol.

For the sequence AATTACACGTGTGGCG, the “relative binding free energy” value turned out to be 0.22 kcal/mol.

As for GGGAACACGTGGAGGC, the “relative binding free energy” value was 0.12 kcal/mol.

With TATGTCACGTGTAATG, the “relative binding free energy” value came out at 0.15 kcal/mol.

Take ATGATCACGTGGGTGA: the “relative binding free energy” value was -0.06 kcal/mol.

Consider TTTAACACGTGCGTTG, for which the “relative binding free energy” value was -0.03 kcal/mol.

Consider GTTTTCACGTGGAGCG, for which the “relative binding free energy” value is 0.3 kcal/mol.

Turning to AATGGCACGTGTGACT, the “relative binding free energy” value is -0.05 kcal/mol.

In the case of CGTTGCACGTGAATGG, the “relative binding free energy” value was found to be 0.15 kcal/mol.

As to AAGGGCACGTGGGATC, the “relative binding free energy” value is -0.17 kcal/mol.

Regarding TAGATCACGTGGGAAG, the “relative binding free energy” value is 0.13 kcal/mol.

Consider CGCTTCACGTGGTTGG, for which the “relative binding free energy” value worked out at 0.12 kcal/mol.

With TGTTTCACGTGCAAAA, the “relative binding free energy” value stood at 0.34 kcal/mol.

On to AGTGTCACGTGGTGTT, for which the “relative binding free energy” value is -0.07 kcal/mol.

For TCGTTCACGTGGGGGT, the “relative binding free energy” value turned out to be 0.18 kcal/mol.

As to AGTGTCACGTGCGTTT, the “relative binding free energy” value stood at 0.03 kcal/mol.

Consider AGTAGCACGTGATCTT, for which the “relative binding free energy” value was 0.19 kcal/mol.

As to GGTTCCACGTGTTGGC, the “relative binding free energy” value stood at 0.19 kcal/mol.

On to GTTGGCACGTGAAAGG, for which the “relative binding free energy” value was 0.26 kcal/mol.

Turning to TGCGGCACGTGAGTGG, the “relative binding free energy” value worked out at 0.09 kcal/mol.

Consider CTGTACACGTGTGTTC, for which the “relative binding free energy” value worked out at 0.18 kcal/mol.

As to GGTGGCACGTGTGACT, the “relative binding free energy” value turned out to be 0 kcal/mol.

On to ACGATCACGTGTGGAG, for which the “relative binding free energy” value worked out at 0.22 kcal/mol.

Regarding ACTGTCACGTGTAGGT, the “relative binding free energy” value came out at 0.07 kcal/mol.

As for TATTTCACGTGTTGGC, the “relative binding free energy” value is 0.4 kcal/mol.

For CACTTCACGTGGTGGG, the “relative binding free energy” value is 0.25 kcal/mol.

For the sequence AGTAACACGTGAGGTT, the “relative binding free energy” value was 0.23 kcal/mol.

As for GCCGACACGTGTTGGG, the “relative binding free energy” value came out at 0.07 kcal/mol.

With GTGTACACGTGTTAAG, the “relative binding free energy” value came out at 0.11 kcal/mol.

TCGGTCACGTGGAATT: the “relative binding free energy” value was 0.43 kcal/mol.

Consider TTAATCACGTGGGTAA, for which the “relative binding free energy” value is 0.13 kcal/mol.

Turning to ATAAACACGTGTGATG, the “relative binding free energy” value is 0.07 kcal/mol.

As for ACTTGCACGTGGGGGA, the “relative binding free energy” value was -0.05 kcal/mol.

Regarding GGAGGCACGTGTATGA, the “relative binding free energy” value is -0.17 kcal/mol.

For GCTTGCACGTGCAGTG, the “relative binding free energy” value worked out at 0.02 kcal/mol.

Turning to GGTGACACGTGGTCGT, the “relative binding free energy” value came to 0.01 kcal/mol.

In the case of TTAATCACGTGCGTGA, the “relative binding free energy” value amounted to 0.13 kcal/mol.

For CTTGTCACGTGCGGCG, the “relative binding free energy” value came to 0.05 kcal/mol.

As for TAATGCACGTGAAATT, the “relative binding free energy” value is 0.2 kcal/mol.

With CTGGTCACGTGGCGAT, the “relative binding free energy” value was found to be 0.18 kcal/mol.

With TGTTGCACGTGTCGGG, the “relative binding free energy” value was determined as 0.08 kcal/mol.

On to AGAAGCACGTGGCGGG, for which the “relative binding free energy” value was -0.22 kcal/mol.

On to GCTGGCACGTGGCGGA, for which the “relative binding free energy” value is -0.19 kcal/mol.

Turning to TTGGACACGTGGGAAT, the “relative binding free energy” value was determined as 0.04 kcal/mol.

GCTGGCACGTGGGAAT: the “relative binding free energy” value was -0.14 kcal/mol.

In the case of GGATTCACGTGTAGGT, the “relative binding free energy” value amounted to 0.2 kcal/mol.

With CATGGCACGTGGTTTT, the “relative binding free energy” value was -0.26 kcal/mol.

Turning to AGGTCCACGTGTCGGG, the “relative binding free energy” value was determined as 0.04 kcal/mol.

For TGGCCCACGTGGTATT, the “relative binding free energy” value was -0.16 kcal/mol.

For the sequence GGGTGCACGTGTGTTA, the “relative binding free energy” value was 0.12 kcal/mol.

As to CTTAGCACGTGGTGCA, the “relative binding free energy” value was -0.14 kcal/mol.

ATCGTCACGTGGCGGA: the “relative binding free energy” value came out at 0.09 kcal/mol.

With TCCGTCACGTGAGGGT, the “relative binding free energy” value is 0.24 kcal/mol.

Consider CGGGGCACGTGGTGCC, for which the “relative binding free energy” value is -0.07 kcal/mol.

TGGCACACGTGTGTTT: the “relative binding free energy” value turned out to be 0.02 kcal/mol.

In the case of TTAGTCACGTGTATTT, the “relative binding free energy” value is 0.13 kcal/mol.

Turning to TGAGGCACGTGTATTG, the “relative binding free energy” value is -0.02 kcal/mol.

Turning to TATATCACGTGAGGTT, the “relative binding free energy” value came to 0.29 kcal/mol.

On to AGGGTCACGTGCCGGG, for which the “relative binding free energy” value was -0.06 kcal/mol.

Regarding GTAGCCACGTGTGGTA, the “relative binding free energy” value is 0.02 kcal/mol.

Consider GCGGTCACGTGTTTAG, for which the “relative binding free energy” value turned out to be 0.1 kcal/mol.

TCTTGCACGTGTTTTC: the “relative binding free energy” value was 0.04 kcal/mol.

In the case of TAATACACGTGAGGCT, the “relative binding free energy” value is 0.33 kcal/mol.

With GGTAGCACGTGGATTC, the “relative binding free energy” value was 0.09 kcal/mol.

On to ACTGGCACGTGTGTCT, for which the “relative binding free energy” value was -0.08 kcal/mol.

As for TGATGCACGTGCGTTG, the “relative binding free energy” value is 0.01 kcal/mol.

Consider GTGCTCACGTGCGGTG, for which the “relative binding free energy” value amounted to 0.25 kcal/mol.

With AGGCTCACGTGGAGTG, the “relative binding free energy” value is 0.04 kcal/mol.

Regarding CTGAGCACGTGTGTGT, the “relative binding free energy” value is -0.07 kcal/mol.

On to AATTTCACGTGCGGCT, for which the “relative binding free energy” value stood at 0.3 kcal/mol.

For the sequence GTCCGCACGTGGGGGT, the “relative binding free energy” value is -0.29 kcal/mol.

AGTTTCACGTGCGGCG: the “relative binding free energy” value turned out to be 0.1 kcal/mol.

On to CGTGACACGTGTAGGT, for which the “relative binding free energy” value is 0.08 kcal/mol.

As for GATGCCACGTGGGTTA, the “relative binding free energy” value was -0.09 kcal/mol.

As to CTTCTCACGTGTATGT, the “relative binding free energy” value stood at 0.21 kcal/mol.

Take GTGATCACGTGGGAGT: the “relative binding free energy” value is 0.11 kcal/mol.

For ACATTCACGTGGGGTA, the “relative binding free energy” value is 0.1 kcal/mol.

With TTGGACACGTGACGGT, the “relative binding free energy” value is 0.13 kcal/mol.

Turning to TGGAGCACGTGAGTCG, the “relative binding free energy” value is 0.19 kcal/mol.

Consider AGAAGCACGTGGAGTT, for which the “relative binding free energy” value was 0.06 kcal/mol.

Consider TGCGACACGTGAGTGT, for which the “relative binding free energy” value was 0.2 kcal/mol.

As to TTATCCACGTGGATGG, the “relative binding free energy” value was -0.07 kcal/mol.

On to AAGGGCACGTGTGATT, for which the “relative binding free energy” value is -0.12 kcal/mol.

On to TGTGCCACGTGAATAT, for which the “relative binding free energy” value worked out at 0.3 kcal/mol.

On to GATAGCACGTGGTTAA, for which the “relative binding free energy” value is -0.04 kcal/mol.

With AGATGCACGTGTTGTT, the “relative binding free energy” value came to 0.05 kcal/mol.

In the case of TTAGGCACGTGCTAGT, the “relative binding free energy” value was -0.25 kcal/mol.
